Test results taken from the supplement of paper PMC10441789.
The list shows a part of the results. Antibody binding of pooled human sera (four to six donors per pool; dilution not stated) to peptides of the Trypanosoma cruzi antigen TSSA on microarrays. Quantile-normalised fluorescence in arbitrary units, mean of duplicate arrays; higher = more binding. No active / inactive call. The uninfected pools are read here as the healthy donors of the same country. The strongest signals lie near the top of the scale (about 60,000).

These sequences were tested on pooled sera of uninfected people, Brazil (assay: antibody binding signal (normalised fluorescence) (arbitrary fluorescence units); higher = stronger serum antibody binding to peptide).
Experimental: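 Microarray of overlapping 15-residue peptides of the four Trypanosoma cruzi TSSA reference variants and 8- to 13-residue peptides of TSSAII 24-62, probed with one serum pool per country.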

| Sequence | antibody binding signal |
| --- | --- |
| TSSTPPGTDKKTAAG | 127 |
| SQPGASSGEA | 157 |
| PSGTEKKAAAGEAPS | 224 |
| TENKPATGEAPSQPG | 357 |
| KKTAAGEAPSPSGAS | 95.2 |
| ATGEAPSQP | 195 |
| ENKPATGE | 139 |
| EKKAAAGEAPSPSGA | 122 |
| APSQPGASS | 231 |
| GEAPSQPGA | 232 |
| STPPSGTENKPATGE | 408 |
| ACTTANGGSTISTPP | 190 |
| SQPGASSGEAEAS | 107 |
| TANGGSTSSTPP | 271 |
| SSTPPSGTENKPA | 1020 |
| SGTDKKTAAGEAPSP | 274 |
| EAPSPSGASSGEAEA | 98.4 |
| KPATGEAPSQPG | 448 |
| GASSGEAEAS | 104 |
| EAPSQPGASSGE | 159 |

| Sequence | antibody binding signal |
| --- | --- |
| TSSTPPSG | 270 |
| TANGGSTS | 248 |
| PATGEAPS | 178 |
| STSSTPPSGTENKPA | 546 |
| PSQPGASSGE | 169 |
| SGTENKPATGEAP | 359 |
| GTEKKAAAGEAPSPS | 118 |
| AAGEAPSPSGASSGE | 145 |
| ANGGSTSSTPPGTDK | 311 |
| GASSGEAEA | 138 |
| ATGEAPSQPGASS | 213 |
| ANGGSTSSTPP | 254 |
| CTTANGGSTSSTPPG | 937 |
| ISTPPSGTEKKAAAG | 149 |
| KPATGEAP | 174 |
| STSSTPPSGTE | 124 |
| AGEAPSPSGASSGEA | 138 |
| GSTSSTPP | 171 |
| TANGGSTSST | 299 |
| TENKPATGEA | 183 |
